# Results from PubChem BioAssay AID504832 (National Center for Advancing Translational Sciences (NCATS), 2011).
# In all, about 310,000 compounds went through this assay and about 18,000 (5.8%) were called active. The shares of active, inactive and inconclusive entries below differ from those in the screen. Calls follow the shape of the dose curve; as a rule, active = well fitted inhibition curve with a large enough effect; inconclusive = small, poorly fitted or top-dose-only effect, or another doubt; inactive = no such curve, though single readings can be large or run the other way. No potency is given beside an inconclusive call; the fits are too rough.
# Assay: Primary qHTS for delayed death inhibitors of the malarial parasite plastid, 48 hour incubation
# Conditions: P. falciparum luciferase growth in erythrocytes; series mostly up to 28.7 µM
# How it was run: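 Luminescence readout; reporter = integrated firefly luciferase in P. falciparum. RBC culture at 2% hematocrit, 0.1% parasitemia final, 37 C/5% CO2; decreased signal taken as growth inhibition.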
# Potency is read from the fitted curve at half-maximal effect; tags tell the direction and shape of the fitted curve.
row,Structure (SMILES),Potency
1,Cc1ccccc1OCC(O)CNC1CCCC1 (configuration not stated),"inconclusive [inhibitor, partial curve, poor fit]"
2,Cc1c(C(=O)NN2CCOCC2)oc2c1ccc1ccccc12,inactive
3,CC(C)CCNC(=O)C12CN(Cc3ccccc3)CC1C(c1ccc([N+](=O)[O-])cc1)=NO2 (configuration not stated),"inconclusive [inhibitor, single point]"
4,COc1ccc(C)cc1-n1c(SCC(=O)NC2CC2)nc2ccccc2c1=O,"inconclusive [inhibitor, single point]"
5,Cn1c(N)c(C(=O)COC(=O)/C=C/c2ccc(F)cc2)c(=O)n(C)c1=O,"inconclusive [inhibitor, single point]"
6,COc1ccc(Cl)cc1NC(=O)c1nnn(CC(=O)Nc2ccc3c(c2)OCO3)c1N,inactive
7,Cc1cc(C)cc(NC(=O)Cc2ccc(S(=O)(=O)N3CCCC3)s2)c1,"inconclusive [inhibitor, single point]"
8,CCC(C)c1ccc(NC(=S)NCc2cccs2)cc1 (configuration not stated),inactive
9,CCNc1nc(-c2ccc(OC(F)F)cc2)c(C)s1,inactive
10,O=C(NN1CCOCC1)c1ccccc1,"inconclusive [inhibitor, single point]"
11,CN(C(=O)CS(=O)(=O)c1cn(CC(=O)N2CCOCC2)c2ccccc12)c1ccccc1,inactive
12,CCOc1ccc(/C=C/c2c([N+](=O)[O-])c(=O)n(C)c(=O)n2C)cc1,"inconclusive [inhibitor, single point]"
13,CC1CC(C)CN(c2ncc3c(n2)CC(c2ccccc2Cl)CC3=O)C1 (configuration not stated),active: 10.4 µM
14,COc1ccc(-n2c(SCC(=O)Nc3cc(C(=O)O)ccc3C)nc3ccccc3c2=O)cc1Cl,"inconclusive [inhibitor, partial curve, poor fit]"
15,COc1ccc(COc2cc(-c3cccc(OC)c3)nc3ccc(NC(=O)c4cccnc4)cc23)cc1,active: 2.94 µM
16,O=C(COC(=O)c1ccc[nH]c1=O)NCCCc1ccccc1,inactive
17,O=C(NCCN1CCOCC1)c1cc2ccccc2oc1=O,inactive
18,N#CCCN1CCN(S(=O)(=O)c2ccc(S(=O)(=O)NCc3ccccc3)cc2)CC1,inactive
19,CCOC(=O)[C@@H]1[C@H]2COc3ccc(Br)cc3[C@H]2N2C(=O)N(c3cccc(Cl)c3)C(=O)[C@]12C,"inconclusive [inhibitor, full curve, poor fit]"
20,CCN1CCN(c2ccc(S(=O)(=O)N3CCOCC3)cc2NC(=O)/C=C/c2ccc(OC)c(OC)c2)CC1,"inconclusive [inhibitor, single point]"
21,O=C(CSc1ccc(S(=O)(=O)N2CCCCC2)cn1)Nc1ccccc1Br,"inconclusive [inhibitor, single point]"
22,COC(=O)C1=C(N)Oc2cc(C)[nH]c(=O)c2C1c1cccnc1 (configuration not stated),inactive
23,COc1cc([C@H](Cc2ccccc2)NC(C)=O)oc(=O)c1,active: 9.28 µM
24,COc1ccccc1NC(=S)NNC(=O)c1c(Cl)c(C)nn1C,inactive

row,Structure (SMILES),Potency
1,CC1(C)Cc2c(C#N)c(SCC(=O)c3ccccc3)nc(N3CCOCC3)c2CS1,active: 2.33 µM
2,COc1ccc(NC(=O)COC(=O)c2ccc(Cl)c(S(N)(=O)=O)c2)c([N+](=O)[O-])c1,"inconclusive [inhibitor, full curve, poor fit]"
3,O=[N+]([O-])c1cccc(/C([O-])=C(/C(=S)Nc2cccc3ccccc23)[n+]2ccccc2)c1,active: 9.28 µM
4,O=C(CCC(=O)N1CCN(c2cccc(Cl)c2)CC1)N1CCN(c2ccccc2)CC1,"inconclusive [inhibitor, single point]"
5,O=C(NNC(=O)c1ccccc1O)c1ccc(S(=O)(=O)Nc2ccccc2)cc1,"inconclusive [inhibitor, single point]"
6,COC(=O)Cc1ccc(OCC(=O)NC2CCCC2)cc1,inactive
7,Oc1c(Br)cc(Br)cc1/C=N/Nc1ccc(Cl)nn1,"inconclusive [inhibitor, full curve]"
8,CSc1ccc(CN(C)C(=O)c2ccc(S(=O)(=O)Nc3ccccc3)cc2)cc1,"inconclusive [inhibitor, single point]"
9,O=[N+]([O-])c1ccccc1S(=O)(=O)N1CCN(Cc2ccc3c(c2)OCO3)CC1,inactive
10,CCS(=O)(=O)c1ccc(C(=O)Nc2ccccc2)c(Cl)c1Cl,inactive
11,Cc1ccc2[nH]c(=O)c(CN(CC3CCCO3)S(=O)(=O)c3cccc4nsnc34)cc2c1 (configuration not stated),"inconclusive [inhibitor, single point]"
12,COc1ccc(C)cc1NC(=O)Nc1ccncc1,"inconclusive [inhibitor, single point]"
13,Cc1snc(S(=O)(=O)Cc2ccccc2Cl)c1C#N,inactive
14,COc1cc2c(cc1OC)C(c1ccccc1)N(C(=O)CSCC(=O)O)CC2 (configuration not stated),inactive
15,CN(C)CCN(C(=O)/C=C/c1cccs1)c1nc2c(F)cc(F)cc2s1,active: 11.7 µM
16,COc1ccc(Cl)cc1NC(=O)NCC1CCN(C(=O)OC(C)(C)C)CC1,"inconclusive [inhibitor, partial curve]"
17,CN(CC(=O)Nc1ccccc1Br)C(=O)c1ccc(-c2ccc(Cl)cc2)o1,"inconclusive [inhibitor, single point]"
18,CCn1c(SC(C)C(=O)Nc2ccc(N3CCOCC3)cc2)nnc1C1CC1 (configuration not stated),"inconclusive [inhibitor, single point]"
19,C#CCNc1c2c(nc3nnnn13)CCCC2,inactive
20,COc1ccc(-n2nc3c(c2NC(=O)C(C)Cl)CSC3)cc1 (configuration not stated),inactive
21,C=CCOc1ccc(/C=C/C(=O)Nc2ccc(C(=O)NC)cc2)cc1,"inconclusive [inhibitor, full curve, poor fit]"
22,Cc1cc(N2CCN(c3ccccc3Cl)CC2)n2cc(-c3ccccc3)nc2n1,"inconclusive [inhibitor, partial curve]"
23,CCOc1nc2ccccc2nc1NS(=O)(=O)c1ccccc1,inactive
24,CCOP(=O)(OCC)c1nc(-c2ccc(F)cc2)oc1NCc1ccccc1,"inconclusive [inhibitor, partial curve]"

row,Structure (SMILES),Potency
1,COc1cccc(NC(=O)[C@H](Cc2ccccc2)NC(=O)[C@@H]2Cc3ccccc3CN2)c1,"inconclusive [inhibitor, partial curve, poor fit]"
2,O=C(Nc1cc(Cl)cc(Cl)c1)Nc1cnccn1,"inconclusive [inhibitor, single point]"
3,COc1ccc(Cn2c(C3CC3)nc3ccc(NC(C)=O)cc3c2=O)cc1,inactive
4,CCNC(=S)N(CCc1c(C)[nH]c2ccc(C)cc12)Cc1cccnc1,"inconclusive [inhibitor, single point]"
5,CCOC(=O)c1ccc(NC(=O)CSc2nnnn2CCCO)cc1,"inconclusive [inhibitor, partial curve, poor fit]"
6,COc1ccc(S(=O)(=O)NCC(c2cccnc2)N2CCN(Cc3ccccc3)CC2)cc1C (configuration not stated),"inconclusive [inhibitor, partial curve]"
7,CCOC(=O)c1c(C)[nH]c(C)c1C(=O)COC(=O)c1c(OC)cccc1OC,"inconclusive [inhibitor, single point]"
8,CCOc1cc(CNc2ccc(N(C)C)cc2)cc(Br)c1OCC(=O)NC(C)(C)C,active: 0.657 µM
9,Cc1ccc(OCC(O)CNC2CCCC2)cc1C (configuration not stated),"inconclusive [inhibitor, single point]"
10,CCCS(=O)(=O)N1CCC(C(=O)NC2CCCCC2C)CC1 (configuration not stated),"inconclusive [inhibitor, full curve]"
11,CC1=NCCN1S(=O)(=O)c1c(C(C)C)cc(C(C)C)cc1C(C)C,"inconclusive [inhibitor, partial curve, poor fit]"
12,COc1ccc(NC(=O)CNC(=O)CC23CC4CC(CC(C4)C2)C3)c(OC)c1,"inconclusive [inhibitor, single point]"
13,COc1ccc(NC(=O)C2CCN(S(C)(=O)=O)CC2)cc1OC,inactive
14,CCOC(=O)c1ccc(-n2c(CN3CCN(CC)CC3)nc3ccc([N+](=O)[O-])cc3c2=O)cc1,"inconclusive [inhibitor, partial curve, poor fit]"
15,O=c1c2ccccc2nc(-c2ccccc2Cl)n1-c1cccc(O)c1,"inconclusive [inhibitor, partial curve, poor fit]"
16,Cc1ccsc1C(=O)OCC(=O)NC1CCCCC1C (configuration not stated),inactive
17,Cc1ccc(NC(=S)NC2CCSc3ccccc32)cc1C (configuration not stated),"inconclusive [inhibitor, single point]"
18,CC1Cc2ccccc2N1C(=O)c1cc2c(=O)n3ccccc3nc2n1C (configuration not stated),"inconclusive [inhibitor, single point]"
19,CCOC(=O)c1ccc(NC(=O)C2CCN(C(=O)c3ccc(OC)c(OC)c3)CC2)cc1,"inconclusive [inhibitor, partial curve]"
20,CCn1c(CCNC(=O)c2cccs2)nnc1SCC(=O)Nc1nc(-c2ccccc2)cs1,active: 11.7 µM
21,Cc1ccc(NC(=O)C2CCCN2C(=O)NCc2ccccc2)cc1 (configuration not stated),inactive
22,Cc1nnc(NC(=O)c2nc(S(=O)(=O)Cc3ccccc3C)ncc2Cl)s1,inactive
23,Cc1cc(C)n(-c2ccc(C(=O)Nc3cccc(S(=O)(=O)N4CCCC4)c3)cc2)n1,inactive
24,CCCCCOCC1CC(C/C(C)=N/Nc2nc(-c3ccccc3)cs2)C(=O)O1 (configuration not stated),"inconclusive [inhibitor, partial curve, poor fit]"
